According to article PMC4336329 (PLoS ONE, 2015):
The campaign covered roughly 310,000 compounds. About 2,200 (0.71%) showed an effect of 50% or more. The effect is printed as a negative number. Some of the results follow.

These compounds were tested against human ether-à-go-go-related gene (hERG) potassium channel (human, UniProt Q12809) (assay: primary screen, population patch clamp on CHO cells stably expressing hERG).
Sequence of human ether-à-go-go-related gene (hERG) potassium channel (Q12809 whole entry, looked up): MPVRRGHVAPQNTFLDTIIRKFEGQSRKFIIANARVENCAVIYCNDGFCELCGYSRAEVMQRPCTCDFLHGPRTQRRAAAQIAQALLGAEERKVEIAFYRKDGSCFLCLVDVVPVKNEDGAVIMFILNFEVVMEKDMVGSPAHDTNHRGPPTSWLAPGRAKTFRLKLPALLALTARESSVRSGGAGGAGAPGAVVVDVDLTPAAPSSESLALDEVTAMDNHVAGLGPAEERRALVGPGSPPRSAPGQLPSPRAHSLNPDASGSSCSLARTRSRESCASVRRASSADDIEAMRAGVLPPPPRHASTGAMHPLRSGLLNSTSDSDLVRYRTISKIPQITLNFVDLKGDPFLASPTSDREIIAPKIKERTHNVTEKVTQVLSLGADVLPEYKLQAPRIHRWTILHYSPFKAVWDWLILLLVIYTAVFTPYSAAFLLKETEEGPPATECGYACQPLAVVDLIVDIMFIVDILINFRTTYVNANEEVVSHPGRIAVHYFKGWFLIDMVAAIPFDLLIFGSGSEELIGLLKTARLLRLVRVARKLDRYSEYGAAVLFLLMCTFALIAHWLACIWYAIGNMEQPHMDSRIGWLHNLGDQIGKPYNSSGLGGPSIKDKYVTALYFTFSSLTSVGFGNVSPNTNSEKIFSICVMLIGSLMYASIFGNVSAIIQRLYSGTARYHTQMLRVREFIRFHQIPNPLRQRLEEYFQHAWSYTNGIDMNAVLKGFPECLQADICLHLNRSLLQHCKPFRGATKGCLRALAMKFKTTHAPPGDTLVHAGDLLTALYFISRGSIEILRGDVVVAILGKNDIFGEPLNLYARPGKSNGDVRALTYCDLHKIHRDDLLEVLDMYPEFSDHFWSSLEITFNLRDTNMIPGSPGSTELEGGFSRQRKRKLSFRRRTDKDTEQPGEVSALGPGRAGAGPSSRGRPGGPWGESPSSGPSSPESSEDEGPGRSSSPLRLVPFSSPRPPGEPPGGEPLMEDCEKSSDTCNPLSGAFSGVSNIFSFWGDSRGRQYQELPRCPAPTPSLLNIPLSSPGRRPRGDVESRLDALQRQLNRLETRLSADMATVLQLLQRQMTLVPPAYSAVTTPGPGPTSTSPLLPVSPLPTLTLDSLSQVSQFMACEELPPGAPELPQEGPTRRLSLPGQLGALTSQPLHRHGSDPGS

Compound | hERG current change (%, negative = inhibition) at 1uM
O=C(Nc1cccc(CCc2ccccn2)c1)c1ccc(Cl)cc1 | 5.78%
COc1cccc(CN(C(=O)c2cccs2)C2CCS(=O)(=O)C2)c1 (centres unmarked) | 7.21%
Cc1ccc(C(C)NC(=S)NC2CCCCC2)c(C)c1 (centres unmarked) | 13.7%
CC(=O)O.CC(=O)Oc1ccc(-c2csc(Nc3ccc(S(N)(=O)=O)cc3)n2)cc1 | 7.11%
CC1CCN(CC(O)COc2ccc(-c3ccccc3)cc2)CC1.Cl (centres unmarked) | -25.2%
COc1cc(CCCN2C(=S)NC[C@@H]2c2ccccc2)cc(OC)c1OC | 12.8%
Cc1n[nH]c(=O)c2c(NC(=O)COC(=O)c3cc(F)cc(F)c3)oc(C)c12 | 15.9%
COc1ccc(/C=N/NC(=O)c2nnn(-c3nonc3N)c2CN(C)C2CCCCC2)cc1 | 2.26%
C=CCn1c(-c2ccccc2)nc(=S)c2c1CC(C)(C)OC2 | 11.6%
CCC(=O)Nc1nc(NCc2ccccc2OC)n(-c2ccccc2)n1 | 5.66%
COc1ccc(N(C(=O)c2snc(C(N)=O)c2N)C(C(=O)NC2CCCC2)c2cc(OC)ccc2OC)c(OC)c1 (centres unmarked) | 18.2%
CSc1ccccc1NC(=O)Nc1cccc2ccccc12 | 12.8%
COc1ccc(C2NC(=O)c3sc(=S)n(-c4ccccc4)c3N2)cc1 (centres unmarked) | 2.53%
Nn1c(SCC(=O)Nc2cc(C(F)(F)F)ccc2Cl)nncc1=O | 2.57%
COc1ccc(NC(=O)CSc2nnc(NC(=O)C3CCC3)s2)c(OC)c1 | 14.4%
CCOC(=O)C1(CCOc2ccccc2)CCN(Cc2ccc3nonc3c2)CC1 | 0.31%
CCN(CC)c1ccc(N=Cc2c(O)n(-c3ccccc3C)c(=O)[nH]c2=O)cc1 | 7.41%
CCCC(=O)NCCc1ccc(F)cc1 | 11.1%
CC1(C)Cc2nc(-c3ccccc3)nc(SCC(=O)N3CCCC3)c2CO1 | 11%
CCOc1ccccc1NC(=S)NCCc1ccccc1 | 9.57%
COc1cccc(NC(=O)NCc2ccccc2F)c1 | 12.7%
CCOc1ccc(NC(=O)c2cc3cc4ccc(OC)cc4nc3o2)cc1 | 13.7%

Compound | hERG current change (%, negative = inhibition) at 1uM
COc1ccc(NC(=O)c2c(-c3ccccc3)noc2C)c(OC)c1 | 1.7%
COC(=O)/C=C1\S/C(=N\N=C\CC(=O)OC)NC1=O | 17.3%
O=C(NC1CC2CCCC(C1)N2C(=O)N1CCCCC1)C1CCCCC1 (centres unmarked) | -4.15%
Cc1ccc2c(c1)C1CCCC3C1N2CC(=O)N3Cc1ccccc1 (centres unmarked) | 12.9%
CCOC(=O)c1nnc(-c2ccc(C)cc2)nc1Sc1ccc(Cl)cc1 | 6.19%
CCOc1cc(C(=O)Nc2ccc3c4c(cccc24)C(=O)N3CC)cc(OCC)c1OCC | 0.475%
Cc1ccc(CNS(=O)(=O)c2ccc(CN3C(=O)c4cccnc4C3=O)cc2)o1 | 14.6%
COC(=O)c1ccc(NC(=O)CN2CCN(S(=O)(=O)c3cc(Cl)ccc3OC)CC2)cc1 | 10.2%
COc1ccc(CN(C)C(=O)c2ccccc2Sc2ccccc2C#N)c(OC)c1 | 9.02%
COc1ccc(-n2nnnc2-c2ccccc2)cc1 | 13.6%
COc1cc(/C=C2\C(=O)NC(=O)N(CCc3ccc(F)cc3)C2=O)ccc1O | 10.3%
CCCCn1c(N)c(N(CC(C)C)C(=O)C2CCCN(C(=O)c3ccc(Cl)cc3)C2)c(=O)[nH]c1=O (centres unmarked) | 19.5%
O=C(Nc1ccc(F)cc1)N1CCN(c2ccc3nnc(-c4ccc(F)cc4)n3n2)CC1 | -24.4%
O=[N+]([O-])c1ccc(N2CCN(c3ccc(O)cc3)CC2)c(Cl)c1 | 6.31%
O=C(CSc1nnc(C2CC2)n1-c1ccccc1)N1CCNC1=O | 14.6%
O=S(=O)(c1ccc(Cl)s1)N1CCN(C/C=C/c2ccccc2)CC1 | -9.09%
COc1ccc(NC(=O)CN2C(=O)COc3ccc(C)cc32)cc1 | 12.8%
O=C(Nc1cccc(Br)c1)c1ccn[nH]1 | 5.21%
COc1ccc(C(=O)Nc2cc3c4c(c2)CC(=O)N4CCC3)cc1 | 0.325%
CCOC(=O)CCCNC(=O)COC(=O)c1ccc(O)cc1 | 7.59%
CC(C)(C)CC(=O)Nc1nnc(SCC(=O)NCc2cccs2)s1 | 6.94%
CCCC(=O)Nc1ccc(S(=O)(=O)N2CCCC2)cc1 | 1.43%
